# Values joined by “and” are separate entries in the source; they are usually repeats but may differ in a detail not shown here. Equal values may be shown once. Active and inactive are the calls of the source. Unless noted, calls follow the shape of the dose curve; as a rule, active = well fitted curve in the direction sought with a large enough effect in the repeat runs; inconclusive = weak or mixed curves; inactive = no such curve, though single readings can be large; an effect the other way counts as inactive or inconclusive.
# How the values were obtained:
# [1] = qHTS assay to identify small molecule antagonists of the androgen receptor (AR) signaling pathway - cell viability counter screen (AID 743033; also: nearly all actives have a fitted effect of over 45% in size); conditions: AR-bla HEK293 viability, CellTiter-Glo luminescence, 16 h; activity change, negative = cytotoxicity: at 58.5 µM (top of the series)
# [2] = qHTS assay to identify small molecule antagonists of the thyroid receptor (TR) signaling pathway (AID 743065); also: nearly all actives have a fitted effect of over 55% in size
# Method in brief: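 GH3.TRE-Luc rat pituitary cells (two TREs driving luciferase) were dosed with compound, then stimulated with 1 nM T3 (final) for 23.5 h at 37 C. ONE-Glo luminescence was the read-out, with CellTiter-Fluor fluorescence as the cytotoxicity counter-screen.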
# [3] = target: Estrogen receptor (Homo sapiens) (UniProt P03372); test: qHTS assay to identify small molecule antagonists of the estrogen receptor alpha (ER-alpha) signaling pathway (AID 743069; active = well fitted curve in the direction sought with a large enough effect in the signal ratio in the repeat runs, not every such curve was filed as active; inconclusive = weak or mixed curves, or effect the other way; inactive = no such curve, though single readings can be large or run the other way; the % refers to the signal ratio; as to activity, negative = inhibition: % is scaled to controls: 0 for no effect and ±100 for the full control effect); conditions: HEK293 ER-alpha-UAS-bla, beta-lactamase ratio, antagonist mode; activity, negative = inhibition: at 69.4 µM (top of the series) unless noted
# Method in brief: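 HEK293 ER-alpha-UAS-bla GripTite cells, held overnight in 2% charcoal-stripped FBS, 5,000 cells/well, preincubated 4 h, then compound plus 17beta-estradiol for 18 h at 37C. Beta-lactamase read by LiveBLAzer B/G FRET substrate, 2 h at room temperature.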
# [4] = qHTS assay to identify small molecule antagonists of the estrogen receptor alpha (ER-alpha) signaling pathway - cell viability counter screen (AID 743074; calls by dose curve;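 also: HEK293 cells carrying ER-alpha-UAS-bla reporter stimulated with 17beta-estradiol; nearly all actives have a fitted effect of over 45% in size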)
# [5] = target: Estrogen receptor (Homo sapiens) (UniProt P03372); test: qHTS assay to identify small molecule agonists of the estrogen receptor alpha (ER-alpha) signaling pathway using the BG1 cell line (AID 743079); conditions: BG1Luc4E2 cells, ERE-luciferase agonist, 22 h; activation: at 70.3 µM (top of the series) unless noted; also: nearly all actives have a fitted effect of over 20% in size
# [6] = qHTS assay to identify small molecule antagonists of the estrogen receptor alpha (ER-alpha) signaling pathway using the BG1 cell line - cell viability counter screen (AID 743081);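 also: compound given together with 17beta-estradiol as the ER stimulus; nearly all actives have a fitted effect of over 45% in size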
# Aromatase (Homo sapiens) = Aromatase (Homo sapiens) (UniProt P11511); test: qHTS assay to identify aromatase inhibitors (AID 743083); also: nearly all actives have a fitted effect of over 55% in size
# [7] = target: Androgen receptor (Homo sapiens) (UniProt P10275); test: qHTS assay to identify small molecule antagonists of the androgen receptor (AR) signaling pathway (AID 743035; active = well fitted inhibition curve with a large enough effect in the signal ratio in the repeat runs, not every such curve was filed as active; inconclusive = weak or mixed curves, or effect the other way; inactive = no such curve, though single readings can be large or run the other way; the % refers to the signal ratio; as to activity change, negative = inhibition: % is scaled to controls: 0 for no effect and ±100 for the full control effect); conditions: HEK293 AR-UAS-bla, R1881-stimulated, beta-lactamase FRET, 16 h; activity change, negative = inhibition: at 58.5 µM (top of the series) unless noted
# Method in brief: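 Fluorescence from a beta-lactamase FRET substrate (LiveBLAzer B/G, 2 h, room temperature) measured inhibition of R1881-stimulated signaling in GeneBLAzer AR-UAS-bla HEK293 cells exposed to compound for 16 h at 37C.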
# [8] = qHTS assay to identify small molecule antagonists of the thyroid receptor (TR) signaling pathway - cell viability counter screen (AID 743064); conditions: GH3.TRE-Luc viability, CellTiter-Fluor, 24 h; activity change, negative = cytotoxic: at 70.3 µM (top of the series) unless noted; also: nearly all actives have a fitted effect of over 50% in size
# Method in brief: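 CellTiter-Fluor readout, 30 min at 37 °C/5% CO2, following 23.5 h incubation of GH3.TRE-Luc cells with test compound and 1 nM T3 (final).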
# [9] = target: Estrogen receptor (Homo sapiens) (UniProt P03372); test: qHTS assay to identify small molecule agonists of the estrogen receptor alpha (ER-alpha) signaling pathway (AID 743075; calls by dose curve)
# [10] = qHTS assay to identify aromatase inhibitors - cell viability counter screen (AID 743084); conditions: MCF-7 aro ERE viability, CellTiter-Fluor, 24 h; activity change, negative = cytotoxicity: at 70.3 µM (top of the series);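 also: cells stimulated with testosterone during compound exposure; nearly all actives have a fitted effect of over 55% in size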
# Potency is read from the fitted curve at half-maximal effect; tags tell the direction and shape of the fitted curve or compound fluorescence and quenching.
# UniProt P03372, sequence (P03372 whole entry, looked up): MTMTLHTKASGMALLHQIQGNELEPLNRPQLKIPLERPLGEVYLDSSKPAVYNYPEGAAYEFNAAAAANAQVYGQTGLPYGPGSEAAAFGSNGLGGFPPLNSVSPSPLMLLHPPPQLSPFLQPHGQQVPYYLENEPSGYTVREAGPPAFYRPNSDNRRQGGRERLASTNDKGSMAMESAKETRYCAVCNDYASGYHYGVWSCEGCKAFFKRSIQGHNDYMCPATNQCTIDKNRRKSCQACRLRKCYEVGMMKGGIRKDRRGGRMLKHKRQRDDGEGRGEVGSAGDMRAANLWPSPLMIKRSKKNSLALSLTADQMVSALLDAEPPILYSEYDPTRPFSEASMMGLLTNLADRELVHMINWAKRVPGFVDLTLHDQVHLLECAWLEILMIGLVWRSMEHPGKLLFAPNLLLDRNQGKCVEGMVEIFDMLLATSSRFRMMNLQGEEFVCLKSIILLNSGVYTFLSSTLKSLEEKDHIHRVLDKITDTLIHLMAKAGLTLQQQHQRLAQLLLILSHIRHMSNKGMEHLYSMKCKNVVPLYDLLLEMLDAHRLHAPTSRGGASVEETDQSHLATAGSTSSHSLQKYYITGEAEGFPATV
# UniProt P10275, sequence (P10275 whole entry, looked up): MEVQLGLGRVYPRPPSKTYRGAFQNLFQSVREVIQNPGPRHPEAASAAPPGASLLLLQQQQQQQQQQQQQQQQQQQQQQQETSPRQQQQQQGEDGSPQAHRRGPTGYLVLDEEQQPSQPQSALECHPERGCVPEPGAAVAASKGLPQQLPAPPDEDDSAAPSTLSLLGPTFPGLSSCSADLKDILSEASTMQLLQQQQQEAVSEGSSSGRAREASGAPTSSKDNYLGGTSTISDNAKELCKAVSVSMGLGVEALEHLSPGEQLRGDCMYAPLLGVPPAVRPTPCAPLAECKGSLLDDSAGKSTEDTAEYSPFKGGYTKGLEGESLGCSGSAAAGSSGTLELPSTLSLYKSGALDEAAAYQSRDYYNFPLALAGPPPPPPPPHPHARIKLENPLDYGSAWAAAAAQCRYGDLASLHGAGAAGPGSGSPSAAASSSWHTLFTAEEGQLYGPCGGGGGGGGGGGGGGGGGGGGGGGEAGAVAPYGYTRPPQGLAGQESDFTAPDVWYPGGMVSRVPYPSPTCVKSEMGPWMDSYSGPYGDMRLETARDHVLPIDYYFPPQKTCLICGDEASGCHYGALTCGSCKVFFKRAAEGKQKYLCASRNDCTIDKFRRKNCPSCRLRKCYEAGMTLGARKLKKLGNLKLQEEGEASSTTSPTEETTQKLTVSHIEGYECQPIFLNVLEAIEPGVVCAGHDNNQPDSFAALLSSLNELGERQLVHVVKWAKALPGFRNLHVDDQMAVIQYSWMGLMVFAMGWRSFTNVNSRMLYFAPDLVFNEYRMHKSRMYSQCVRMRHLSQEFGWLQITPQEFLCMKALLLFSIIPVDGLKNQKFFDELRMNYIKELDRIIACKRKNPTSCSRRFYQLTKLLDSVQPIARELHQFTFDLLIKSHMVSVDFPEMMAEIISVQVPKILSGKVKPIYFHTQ
# UniProt P11511, sequence (P11511 whole entry, looked up): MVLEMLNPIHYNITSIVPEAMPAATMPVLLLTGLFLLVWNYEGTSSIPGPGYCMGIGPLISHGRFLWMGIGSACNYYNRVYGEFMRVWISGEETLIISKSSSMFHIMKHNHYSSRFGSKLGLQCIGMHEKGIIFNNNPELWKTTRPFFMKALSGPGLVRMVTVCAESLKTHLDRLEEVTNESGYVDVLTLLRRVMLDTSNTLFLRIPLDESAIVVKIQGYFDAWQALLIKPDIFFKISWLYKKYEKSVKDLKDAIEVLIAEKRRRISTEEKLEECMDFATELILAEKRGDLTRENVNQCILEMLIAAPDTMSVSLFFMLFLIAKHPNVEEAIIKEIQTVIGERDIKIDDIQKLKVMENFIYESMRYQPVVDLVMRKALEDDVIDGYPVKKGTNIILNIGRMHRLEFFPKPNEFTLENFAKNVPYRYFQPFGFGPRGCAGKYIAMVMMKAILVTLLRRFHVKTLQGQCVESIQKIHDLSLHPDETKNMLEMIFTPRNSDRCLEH
smiles,measurement,setting,value
Oc1cc(Cl)cc(Cl)c1Cl,Potency,[1],active: 50.2 µM
same,Potency,[2],"inconclusive: 70.3 µM [inhibitor, single point]"
same,"activity, negative = inhibition",[3],inconclusive: -25% [at 79.1 µM]
same,Potency,[4],"inconclusive: 31.7 µM [cytotoxic, partial curve, poor fit]"
same,Potency,[5],inconclusive: 62.6 µM [inhibitor]
same,Potency,[6],"inconclusive: 70.3 µM [rising, single point]"
same,Potency,Aromatase (Homo sapiens),"inconclusive: 62.6 µM [inhibitor, partial curve, poor fit]"
NC1CCN(c2nc3c(cc2F)c(=O)c(C(=O)O)cn3-c2ccc(F)cc2F)C1 (stereo not drawn),Potency,[1],"inconclusive: 5.35 µM [rising, full curve, poor fit]"
same,Potency,[3],"inconclusive: 10.7 µM [activator, partial curve]"
same,Potency,[6],"inconclusive: 0.668 µM [cytotoxic, partial curve, poor fit]"
Oc1ccc(OCc2ccccc2)cc1,Potency,[7],"inconclusive: 27 µM [rising, partial curve]"
same,"activity change, negative = inhibition",[7],inconclusive: -43.5% [at 27 µM]
same,Potency,[8],"active: 9.02 µM and inconclusive: 11.9 µM [cytotoxic, full curve]"
same,Potency,[3],inconclusive: 53.8 µM [fluorescent]
same,Potency,[4],"inconclusive: 12 µM [rising, partial curve]"
same,Potency,[9],active: 11.4 µM [activator] and active: 53.8 µM [inconclusive]
same,Potency,[5],active: 8.04 µM and active: 9.48 µM
same,Potency,[10],"inconclusive: 30 µM [cytotoxic, partial curve]"
